Source: PubChem BioAssay AID2107 (National Center for Advancing Translational Sciences (NCATS), 2009)
Values joined by “and” are separate entries in the source; they are usually repeats but may differ in a detail not shown here. Identical values can stand only once. In all, about 240,000 compounds went through this assay and about 20 (0.008%) were called active. Inconclusive results, whose numbers are uncertain, are shown with a selection of clear calls. Calls follow the shape of the dose curve; as a rule, active = well fitted inhibition curve with a large enough effect; inconclusive = small, poorly fitted or top-dose-only effect, or effect the other way; inactive = flat fitted curve, though single readings scatter. Potencies beside an inconclusive call are fits to weak or partial responses and may not hold up.

biological target: Alpha-galactosidase A (Homo sapiens) (UniProt P06280); assay: qHTS Assay for Inhibitors and Activators of Human alpha-Galactosidase From Spleen Homogenate; settings: 4MU-alpha-Gal fluorescence, 40 min; activity change, negative = inhibition: at 80 µM (top of the series);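 as to activity change, negative = inhibition: 0% = enzyme with vehicle and -100% = no enzyme basal signal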
UniProt P06280, sequence (P06280 whole entry, looked up): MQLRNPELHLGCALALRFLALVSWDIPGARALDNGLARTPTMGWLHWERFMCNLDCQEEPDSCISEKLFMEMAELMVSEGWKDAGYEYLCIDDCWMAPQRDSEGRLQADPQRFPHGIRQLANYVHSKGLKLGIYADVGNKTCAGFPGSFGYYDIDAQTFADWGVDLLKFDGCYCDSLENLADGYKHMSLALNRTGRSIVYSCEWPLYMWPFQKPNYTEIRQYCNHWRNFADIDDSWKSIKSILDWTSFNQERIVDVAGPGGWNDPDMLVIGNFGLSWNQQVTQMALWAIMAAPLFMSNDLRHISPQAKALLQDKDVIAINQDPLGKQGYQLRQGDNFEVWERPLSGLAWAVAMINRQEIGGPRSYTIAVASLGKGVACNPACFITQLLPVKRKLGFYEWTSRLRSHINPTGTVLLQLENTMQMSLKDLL
Procedure, shortened: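 Spleen homogenate 1 ug + cpd (titration) + 4-MU-alpha-D-galactopyranoside 1 mM; 37C 40 min; 50 mM citrate/phosphate pH 5.0, 0.01% Tween-20; stop pH 10; fluorescence 365/440; AC50 via Hill.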
Potency is read from the fitted curve at half-maximal effect; tags tell the direction and shape of the fitted curve.

Row | SMILES | Potency | activity change, negative = inhibition
1 | CC1(C)Cc2nc(N3CCCC3)c(C#N)cc2CO1 | inconclusive: 35.5 µM [activator, partial curve] | 
2 | COc1cccc(/C=N/NC(=O)c2ccc(-c3ccccc3)cc2)c1O |  | inactive: -18.8%
3 | N#Cc1c(-c2ccco2)cc(-c2ccccc2)[nH]c1=O | inconclusive: 31.6 µM [activator, partial curve] | 
4 | C/C(=N/NC(=O)c1ccncc1)c1cc2ccc(O)cc2oc1=O | inconclusive: 35.5 µM [activator, partial curve] | 
5 | COc1ccc(Oc2coc3cc(OC(=O)N4CCOCC4)ccc3c2=O)cc1 | inconclusive: 35.5 µM [inhibitor, partial curve] | 
6 | CCOc1ccc2oc(C(=O)NC(C)(C)CC)c(C)c2c1 |  | inactive: -6.16%
7 | O=c1[nH]c(N/N=C/c2ccc(O)cc2)nc2ccccc12 | inconclusive: 44.7 µM [activator, single point] | 
8 | CC(=O)NCCNc1ncnc2ccc(-c3ccccc3C(F)(F)F)cc12 |  | inactive: 4.12%
9 | O=C1C(Cl)=C(NCCN2CCCCC2)C(=O)c2ccccc21 |  | inactive: -1.98%
10 | CC(=O)OCOC(c1ccc2ccccc2c1)P(=O)(OCOC(C)=O)OCOC(C)=O (stereo not given) | inconclusive: 8.91 µM [inhibitor, single point] | 
11 | CN1CCc2cccc3c2C1Cc1ccc(O)c(O)c1-3 (stereo not given) | inconclusive: 11.2 µM [inhibitor, partial curve] | 
12 | CC12CCC(C(=O)NNc3ccccc3)(OC1=O)C2(C)C (stereo not given) |  | inactive: -0.263%
13 | COc1ccc(Oc2ncc3nc(-c4cn(C)c5ccccc45)c(=O)n(C)c3n2)cc1 | inconclusive: 35.5 µM [inhibitor, partial curve] | 
14 | O=C(c1cc2c(ccc3ccccc32)oc1=O)N1CCCC1 | inconclusive: 35.5 µM [activator, partial curve] | 
15 | Cc1cc(N/N=C/c2cccc(Cl)c2)nc(-n2nc(C)cc2C)n1 |  | inactive: -8.52%
16 | COC(=O)c1ccc(CSc2nnc3sc4ccccc4n23)o1 | inconclusive: 11.2 µM [activator, single point] | 
17 | Cn1nc(C(F)(F)F)c(-c2ccccc2)c1NC(=O)c1nccnc1C(=O)O | inconclusive: 0.0891 µM [activator, full curve, poor fit] | 
18 | CSc1nnc(-c2cc3ccccc3cc2O)n1C | inconclusive: 31.6 µM [activator, single point] | 
19 | CC(C)c1cc(C(C)C)c(S(=O)(=O)Nc2cccc3cccnc23)c(C(C)C)c1 |  | inactive: 0.49%
20 | Cn1c(=O)c2[nH]c(-c3ccc(S(=O)(=O)O)cc3)nc2n(C)c1=O | inconclusive: 44.7 µM [activator, partial curve] and inconclusive: 25.1 µM [activator, partial curve] | 
